Measured values reported in the antibiotic and cytotoxicity screens of Wong et al. (2023).
The list shows a part of the results.

Experiments:
HSkMC = human skeletal muscle cells; experiment: cytotoxicity call (relative viability < 0.9); conditions: 10 µM
HepG2 = experiment: cytotoxicity call (relative viability < 0.9); conditions: 10 µM
S. aureus RN4220 = experiment: growth inhibition call (relative growth <= 0.2); conditions: 50 µM

Nc1nc(N)c2nc(CNc3ccc(C(=O)NC(CCC(=O)O)C(=O)O)cc3)cnc2n1 (centres undefined)
cytotoxicity call (HSkMC): inactive
cytotoxicity call (HepG2): active
growth inhibition call (S. aureus RN4220): inactive

O=C(C[C@@H]1C[C@H]2c3cc(NC(=O)Nc4ccc(C(F)(F)F)cc4)ccc3O[C@H]2[C@@H](CO)O1)NCCc1ccccc1
cytotoxicity call (HSkMC): inactive
cytotoxicity call (HepG2): inactive
growth inhibition call (S. aureus RN4220): inactive

CC[C@H](C#CCN1CCOCC1)OC(C)=O
cytotoxicity call (HSkMC): inactive
cytotoxicity call (HepG2): inactive
growth inhibition call (S. aureus RN4220): inactive

Cc1ccccc1S(=O)(=O)N1C[C@@H](O)COC[C@H]2O[C@H](CC(=O)NCCc3ccncc3)CC[C@@H]21
cytotoxicity call (HSkMC): inactive
cytotoxicity call (HepG2): inactive
growth inhibition call (S. aureus RN4220): inactive

O=C(C[C@H]1CC[C@@H](NC(=O)CN2CCOCC2)[C@H](CO)O1)NCCc1ccncc1
cytotoxicity call (HSkMC): inactive
cytotoxicity call (HepG2): inactive
growth inhibition call (S. aureus RN4220): inactive

C[C@H](CO)N1C[C@H](C)[C@@H](CN(C)Cc2ccc(Oc3ccccc3)cc2)Oc2ccc(NC(=O)C3CCCCC3)cc2CC1=O
cytotoxicity call (HSkMC): inactive
cytotoxicity call (HepG2): inactive
growth inhibition call (S. aureus RN4220): inactive

CN(C)CC(=O)N[C@H]1C=C[C@H](CC(=O)NCCN2CCCCC2)O[C@H]1CO
cytotoxicity call (HSkMC): inactive
cytotoxicity call (HepG2): inactive
growth inhibition call (S. aureus RN4220): inactive

O=C1CCc2ccc(OCCCCN3CCN(c4cccc(Cl)c4Cl)CC3)cc2N1
cytotoxicity call (HSkMC): inactive
cytotoxicity call (HepG2): active
growth inhibition call (S. aureus RN4220): inactive

O=C(C[C@H]1C[C@H]2c3cc(NC(=O)Cc4ccncc4)ccc3O[C@H]2[C@@H](CO)O1)NCCN1CCCCC1
cytotoxicity call (HSkMC): inactive
cytotoxicity call (HepG2): inactive
growth inhibition call (S. aureus RN4220): inactive

C=CCNc1nc(C)nc(OC)n1
cytotoxicity call (HSkMC): inactive
cytotoxicity call (HepG2): inactive
growth inhibition call (S. aureus RN4220): inactive

O=C(C[C@@H]1CC[C@@H]2[C@H](COC[C@H](O)CN2S(=O)(=O)c2cccc(Cl)c2)O1)NCc1ccc2c(c1)OCO2
cytotoxicity call (HSkMC): inactive
cytotoxicity call (HepG2): inactive
growth inhibition call (S. aureus RN4220): inactive

C[C@@H]1CN([C@H](C)CO)C(=O)c2cc(NC(=O)Nc3ccc4c(c3)OCO4)ccc2O[C@@H]1CN(C)Cc1ccc(C(F)(F)F)cc1
cytotoxicity call (HSkMC): active
cytotoxicity call (HepG2): active
growth inhibition call (S. aureus RN4220): inactive

C[C@@H]1CCCCO[C@H](CN(C)C(=O)Nc2ccc(F)cc2)[C@@H](C)CN([C@@H](C)CO)C(=O)c2cc(NC(=O)Cc3ccccc3)ccc2O1
cytotoxicity call (HSkMC): inactive
cytotoxicity call (HepG2): inactive
growth inhibition call (S. aureus RN4220): inactive

CCc1ccc(CNC2CC2)cc1
cytotoxicity call (HSkMC): inactive
cytotoxicity call (HepG2): inactive
growth inhibition call (S. aureus RN4220): inactive

Cc1ccc2oc(=O)cc(Cl)c2c1
cytotoxicity call (HSkMC): inactive
cytotoxicity call (HepG2): inactive
growth inhibition call (S. aureus RN4220): inactive

C[C@H]1CN([C@@H](C)CO)C(=O)c2cccc(NC(=O)Nc3cccc4ccccc34)c2O[C@H]1CN(C)C(=O)Nc1ccccc1
cytotoxicity call (HSkMC): inactive
cytotoxicity call (HepG2): inactive
growth inhibition call (S. aureus RN4220): inactive

C[C@@H]1CN([C@@H](C)CO)C(=O)Cc2cc(NS(=O)(=O)c3ccc(F)cc3)ccc2O[C@H]1CN(C)S(=O)(=O)c1cccs1
cytotoxicity call (HSkMC): inactive
cytotoxicity call (HepG2): inactive
growth inhibition call (S. aureus RN4220): inactive

C[C@H](CO)N1C[C@H](C)[C@@H](CN(C)Cc2ccc(C(=O)Nc3ccccc3N)cc2)Oc2c(NC(=O)Nc3ccc(C(F)(F)F)cc3)cccc2C1=O
cytotoxicity call (HSkMC): inactive
cytotoxicity call (HepG2): inactive
growth inhibition call (S. aureus RN4220): inactive

CC(C)NC(=O)N(C)C[C@@H]1Oc2c(NS(=O)(=O)c3ccc(Cl)cc3)cccc2C(=O)N([C@H](C)CO)C[C@@H]1C
cytotoxicity call (HSkMC): inactive
cytotoxicity call (HepG2): inactive
growth inhibition call (S. aureus RN4220): inactive

C[C@@]1(F)[C@H](O)[C@@H](CO)O[C@H]1n1ccc(N)nc1=O
cytotoxicity call (HSkMC): inactive
cytotoxicity call (HepG2): inactive
growth inhibition call (S. aureus RN4220): inactive

COc1ccc(NC(=O)N(C)C[C@@H]2Oc3ncc(C#C[C@H](C)O)cc3C(=O)N([C@H](C)CO)C[C@H]2C)cc1
cytotoxicity call (HSkMC): inactive
cytotoxicity call (HepG2): inactive
growth inhibition call (S. aureus RN4220): inactive

C[C@@H]1CN([C@@H](C)CO)C(=O)CCCn2cc(nn2)CO[C@@H]1CN(C)C(=O)Nc1ccc(C(C)(C)C)cc1
cytotoxicity call (HSkMC): inactive
cytotoxicity call (HepG2): inactive
growth inhibition call (S. aureus RN4220): inactive

C[C@H](C(=O)O)N1CCCC1=O
cytotoxicity call (HSkMC): inactive
cytotoxicity call (HepG2): inactive
growth inhibition call (S. aureus RN4220): inactive

Cc1ccc(S(=O)(=O)N[C@H](C(=O)NCCn2cc(CN3C(=O)COC[C@H]3c3ccccc3)nn2)C(C)C)cc1
cytotoxicity call (HSkMC): inactive
cytotoxicity call (HepG2): inactive
growth inhibition call (S. aureus RN4220): inactive

C[C@@H]1CN([C@@H](C)CO)C(=O)c2cc(NC(=O)C3CCCCC3)ccc2O[C@@H](C)CCCCO[C@H]1CN(C)C(=O)Nc1ccc2c(c1)OCO2
cytotoxicity call (HSkMC): inactive
cytotoxicity call (HepG2): inactive
growth inhibition call (S. aureus RN4220): inactive

Cc1noc(C)c1S(=O)(=O)Nc1ccc2c(c1)C(=O)N([C@H](C)CO)C[C@@H](C)[C@@H](CN(C)Cc1ccc(Cl)c(Cl)c1)OCCCC[C@H](C)O2
cytotoxicity call (HSkMC): active
cytotoxicity call (HepG2): active
growth inhibition call (S. aureus RN4220): inactive

COc1cccc(-c2cn(CC[C@H]3CC[C@@H](NS(=O)(=O)c4ccccc4Cl)[C@@H](CO)O3)nn2)c1
cytotoxicity call (HSkMC): inactive
cytotoxicity call (HepG2): inactive
growth inhibition call (S. aureus RN4220): inactive

Cc1ccc(S(=O)(=O)Nc2ccc3c(c2)C(=O)N([C@@H](C)CO)C[C@H](C)[C@@H](CN(C)C(=O)Nc2c(C)noc2C)OCCCC[C@H](C)O3)cc1
cytotoxicity call (HSkMC): inactive
cytotoxicity call (HepG2): inactive
growth inhibition call (S. aureus RN4220): inactive
